For one assay, the system named is MeWo and WM3918 cells. The conditions noted are these: increasing concentrations, 48 h.
In assay [1] the test system is COLO792, MeWo and WM3918 cells. The assay is described as follows: NucView Caspase-3/7 apoptosis assay. To be noted: 48 or 72 h; increasing concentrations. It counts as cell-based, human.
The test system of assay [2] is p-SYK^Y525/526 in WM3918 xenograft tumors. The assay is described as follows: Xenograft pharmacodynamic Western blot. The format is in vivo, mouse. The conditions noted are these: single dose 100 mg/kg IP; 0.5 h after dosing. A general note: A western blot detects proteins with antibodies after separation by electrophoresis.

This is an account of results in article PMC9845987 (Cancer research, 2023).

In the case of “N-(2-chloro-5-(4-((3-chloro-4-fluorophenyl)amino)-3-cyanoquinolin-6-yl)pyridin-3-yl)methanesulfonamide [MTX-216]”, the “Potency in reducing mitochondrial mass (MitoTracker Deep Red)” value in the assay with MeWo and WM3918 cells is on record as “significantly more potent than MTX-211 in reducing both mitochondrial markers”. Moreover, the “Frequency of apoptotic cells (high caspase activity)” value in assay [1] is “dose-dependent increase in the frequency of apoptotic cells”. Also, in assay [2], the “p-SYK levels in excised tumors” value was “significant reduction”.
